Substitutions are numbered along the chain they refer to; changes in the protein carry UniProt numbers. Some of the results follow.
T1: RBFOX1 RRM RbFoxmut (Fox-RRM*) (Homo sapiens, UniProt Q9NWB1 109-208, R118D;E147R;N151S;E152T)
T1 sequence: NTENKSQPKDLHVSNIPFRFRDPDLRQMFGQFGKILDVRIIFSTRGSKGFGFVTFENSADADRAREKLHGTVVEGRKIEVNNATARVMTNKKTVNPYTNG

B1: AACGGAC (DNA:RNA)
RNA: GGGAGACCGGAAUUCAGAUUGUCCAACGGACUUAAAUCCCGUCGUAGCCACCA
DNA 1: CAATCTGAATTCCGGTCTCCC
DNA 2: TGGTGGCTACGACGGGATT
B2: CCGUGCA (DNA:RNA)
RNA: B1 RNA with A25C, A26C, C27G, G28U, A30C, C31A
DNA 1: CAATCTGAATTCCGGTCTCCC
DNA 2: TGGTGGCTACGACGGGATT
B3: AACCCCU (DNA:RNA)
RNA: B1 RNA with G28C, G29C, A30C, C31U
DNA 1: CAATCTGAATTCCGGTCTCCC
DNA 2: TGGTGGCTACGACGGGATT
B4: GACGGGA (DNA:RNA)
RNA: B1 RNA with A25G, A30G, C31A
DNA 1: CAATCTGAATTCCGGTCTCCC
DNA 2: TGGTGGCTACGACGGGATT
B5: UGUCGGC (DNA:RNA)
RNA: B1 RNA with A25U, A26G, C27U, G28C, A30G
DNA 1: CAATCTGAATTCCGGTCTCCC
DNA 2: TGGTGGCTACGACGGGATT
B6: GGUCGUC (DNA:RNA)
RNA: B1 RNA with A25G, A26G, C27U, G28C, A30U
DNA 1: CAATCTGAATTCCGGTCTCCC
DNA 2: TGGTGGCTACGACGGGATT
B7: CGGUGAC (DNA:RNA)
RNA: B1 RNA with A25C, A26G, C27G, G28U
DNA 1: CAATCTGAATTCCGGTCTCCC
DNA 2: TGGTGGCTACGACGGGATT
B8: UUUUUUC (DNA:RNA)
RNA: B1 RNA with A25U, A26U, C27U, G28U, G29U, A30U
DNA 1: CAATCTGAATTCCGGTCTCCC
DNA 2: TGGTGGCTACGACGGGATT
B9: ACAUUCG (DNA:RNA)
RNA: B1 RNA with A26C, C27A, G28U, G29U, A30C, C31G
DNA 1: CAATCTGAATTCCGGTCTCCC
DNA 2: TGGTGGCTACGACGGGATT
B10: CAUCCGA (DNA:RNA)
RNA: B1 RNA with A25C, C27U, G28C, G29C, A30G, C31A
DNA 1: CAATCTGAATTCCGGTCTCCC
DNA 2: TGGTGGCTACGACGGGATT
B11: AGAGGUU (DNA:RNA)
RNA: B1 RNA with A26G, C27A, A30U, C31U
DNA 1: CAATCTGAATTCCGGTCTCCC
DNA 2: TGGTGGCTACGACGGGATT
B12: GGUUCGA (DNA:RNA)
RNA: GGGAGACCGGAAUUCAGAUUGUCCGGUUCGAUUAAAUCCCGUCGUAGCCACCA
DNA 1: CAATCTGAATTCCGGTCTCCC
DNA 2: TGGTGGCTACGACGGGATT
B13: CAUGGUG (DNA:RNA)
RNA: B1 RNA with A25C, C27U, A30U, C31G
DNA 1: CAATCTGAATTCCGGTCTCCC
DNA 2: TGGTGGCTACGACGGGATT
B14: CAGUGGA (DNA:RNA)
RNA: B12 RNA with G25C, G26A, U27G, C29G
DNA 1: CAATCTGAATTCCGGTCTCCC
DNA 2: TGGTGGCTACGACGGGATT
B15: UACUUAU (DNA:RNA)
RNA: B1 RNA with A25U, G28U, G29U, C31U
DNA 1: CAATCTGAATTCCGGTCTCCC
DNA 2: TGGTGGCTACGACGGGATT
B16: UGGAACU (DNA:RNA)
RNA: B12 RNA with G25U, U27G, U28A, C29A, G30C, A31U
DNA 1: CAATCTGAATTCCGGTCTCCC
DNA 2: TGGTGGCTACGACGGGATT
B17: ACAAUCA (DNA:RNA)
RNA: B1 RNA with A26C, C27A, G28A, G29U, A30C, C31A
DNA 1: CAATCTGAATTCCGGTCTCCC
DNA 2: TGGTGGCTACGACGGGATT
B18: CUUCUGG (DNA:RNA)
RNA: B12 RNA with G25C, G26U, U28C, C29U, A31G
DNA 1: CAATCTGAATTCCGGTCTCCC
DNA 2: TGGTGGCTACGACGGGATT
B19: UUAGUGA (DNA:RNA)
RNA: B12 RNA with G25U, G26U, U27A, U28G, C29U
DNA 1: CAATCTGAATTCCGGTCTCCC
DNA 2: TGGTGGCTACGACGGGATT
B20: CAUCACC (DNA:RNA)
RNA: B1 RNA with A25C, C27U, G28C, G29A, A30C
DNA 1: CAATCTGAATTCCGGTCTCCC
DNA 2: TGGTGGCTACGACGGGATT
B21: GACUGGA (DNA:RNA)
RNA: B12 RNA with G26A, U27C, C29G
DNA 1: CAATCTGAATTCCGGTCTCCC
DNA 2: TGGTGGCTACGACGGGATT
B22: CCCAUGG (DNA:RNA)
RNA: B1 RNA with A25C, A26C, G28A, G29U, A30G, C31G
DNA 1: CAATCTGAATTCCGGTCTCCC
DNA 2: TGGTGGCTACGACGGGATT
B23: GAAGCGU (DNA:RNA)
RNA: B12 RNA with G26A, U27A, U28G, A31U
DNA 1: CAATCTGAATTCCGGTCTCCC
DNA 2: TGGTGGCTACGACGGGATT
B24: GCUUAAG (DNA:RNA)
RNA: B12 RNA with G26C, C29A, G30A, A31G
DNA 1: CAATCTGAATTCCGGTCTCCC
DNA 2: TGGTGGCTACGACGGGATT
B25: GCCUCAU (DNA:RNA)
RNA: B12 RNA with G26C, U27C, G30A, A31U
DNA 1: CAATCTGAATTCCGGTCTCCC
DNA 2: TGGTGGCTACGACGGGATT
B26: CACCGAU (DNA:RNA)
RNA: B1 RNA with A25C, G28C, C31U
DNA 1: CAATCTGAATTCCGGTCTCCC
DNA 2: TGGTGGCTACGACGGGATT
B27: CACUACU (DNA:RNA)
RNA: B1 RNA with A25C, G28U, G29A, A30C, C31U
DNA 1: CAATCTGAATTCCGGTCTCCC
DNA 2: TGGTGGCTACGACGGGATT
B28: AGUGCGU (DNA:RNA)
RNA: B12 RNA with G25A, U28G, A31U
DNA 1: CAATCTGAATTCCGGTCTCCC
DNA 2: TGGTGGCTACGACGGGATT
B29: CUCCCUC (DNA:RNA)
RNA: B1 RNA with A25C, A26U, G28C, G29C, A30U
DNA 1: CAATCTGAATTCCGGTCTCCC
DNA 2: TGGTGGCTACGACGGGATT
B30: GGUGGUG (DNA:RNA)
RNA: B12 RNA with U28G, C29G, G30U, A31G
DNA 1: CAATCTGAATTCCGGTCTCCC
DNA 2: TGGTGGCTACGACGGGATT
B31: GGUCAGG (DNA:RNA)
RNA: B12 RNA with U28C, C29A, A31G
DNA 1: CAATCTGAATTCCGGTCTCCC
DNA 2: TGGTGGCTACGACGGGATT

biological target: T1, RBFOX1 RRM RbFoxmut (Fox-RRM*); experiment: EMSA; HiTS-Eq, 1 nM pool, 10 min; buffer printed only for the single-RNA assays: 10 mM Tris pH 7.5, 150 mM NaCl, 3.4 mM EDTA, 0.001% NP-40, 30 C; conditions: tags: His6 N-terminal (pET28a); label: 5' 32P
In short: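 Purified RbFox RRM, wild type or mutant, was incubated for 10 min in 50 µL with 1 nM of a 5′-radiolabelled RNA pool carrying 7 randomized nucleotides, whose flanks were annealed to DNA oligonucleotides, over a series of increasing protein concentrations. Unbound RNA was resolved on 8% native PAGE, cut out, reverse-transcribed, barcoded by PCR and sequenced on an Illumina HiSeq 2500. Relative association constants were derived from changes in read counts for each RNA species versus the control reaction and normalised to the cognate motif.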

| Binder | binding signal |
| --- | --- |
| B1 | 0.0772 KA relative to UGCAUGU |
| B2 | 0.215 KA relative to UGCAUGU |
| B3 | 0.0514 KA relative to UGCAUGU |
| B4 | 0.0119 KA relative to UGCAUGU |
| B5 | 0.104 KA relative to UGCAUGU |
| B6 | 0.159 KA relative to UGCAUGU |
| B7 | 0.0871 KA relative to UGCAUGU |
| B8 | 0.0746 KA relative to UGCAUGU |
| B9 | 0.109 KA relative to UGCAUGU |
| B10 | 0.0593 KA relative to UGCAUGU |
| B11 | 0.0888 KA relative to UGCAUGU |
| B12 | 0.239 KA relative to UGCAUGU |
| B13 | 0.14 KA relative to UGCAUGU |
| B14 | 0.125 KA relative to UGCAUGU |
| B15 | 0.12 KA relative to UGCAUGU |
| B16 | 0.1 KA relative to UGCAUGU |

| Binder | binding signal |
| --- | --- |
| B17 | 0.0799 KA relative to UGCAUGU |
| B18 | 0.079 KA relative to UGCAUGU |
| B19 | 0.0842 KA relative to UGCAUGU |
| B20 | 0.0759 KA relative to UGCAUGU |
| B21 | 0.0857 KA relative to UGCAUGU |
| B22 | 0.0668 KA relative to UGCAUGU |
| B23 | 0.0921 KA relative to UGCAUGU |
| B24 | 0.12 KA relative to UGCAUGU |
| B25 | 0.117 KA relative to UGCAUGU |
| B26 | 0.0813 KA relative to UGCAUGU |
| B27 | 0.0793 KA relative to UGCAUGU |
| B28 | 0.144 KA relative to UGCAUGU |
| B29 | 0.0399 KA relative to UGCAUGU |
| B30 | 0.175 KA relative to UGCAUGU |
| B31 | 0.0722 KA relative to UGCAUGU |

— paper PMC9911399, “Two distinct binding modes provide the RNA-binding protein RbFox with extraordinary sequence specificity”
